Laboratory results: PubChem BioAssay (NCATS)
The list shows a part of the results. Shown are side measurements of this screen, not its main read-out; they come without a call. The list favours compounds with an active or inconclusive main result. The note in brackets gives the kind of curve behind each potency; many fits are weak.

Experiment: qHTS Assay for Lipid Storage Modulators (AID 1519)
Details: Drosophila S3 cells, BODIPY lipid droplet/cell ratio, laser cytometry, cells loaded with oleic acid
Summary of the method: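 Cells seeded at 5,000 per well were treated with compounds over a concentration series and loaded with oleic acid (400 uM, as added). Lipid droplet fluorescence (488 nm excitation, 500-530 nm channel) was read by laser-scanning cytometry and normalized to 20 uM Triacsin C.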

[1] = measured here: cell count channel max response
[2] = measured here: cell number channel AC50
[3] = measured here: lipid (BODIPY) channel AC50
[4] = measured here: lipid channel max response
Tags tell the direction and shape of the fitted curve.

SMILES	max response [1] [%]	AC50 [2]	AC50 [3]	max response [4] [%]
COCCn1c(=O)c(-c2ccc(F)cc2)nc2cnc(N(C)C)nc21	28.3	3.16 µM [rising, full curve, poor fit]	3.55 µM [rising, full curve]	30.4
COCCn1c(=O)c(-c2ccc(F)cc2)nc2cnc(OCc3ccccc3)nc21	7.55	0.631 µM [rising, full curve, poor fit]	0.708 µM [rising, full curve]	-17.9
Cc1ccccc1-c1nccc(NCc2cccnc2)n1	21.1	0.501 µM [rising, full curve, poor fit]	0.501 µM [rising, full curve, poor fit]	27.7
COc1cc2c(cc1OC)-c1cc3nc4ccccc4nc3n1C(C)(C)C2	50	3.98 µM [rising, full curve]	4.47 µM [rising, full curve]	-88.2
COc1ccc(C2OCC3(COC(C)=O)C(C)C=C(C)C2C3C)cc1 (stereo unspecified)	56	35.5 µM [rising, single point]	35.5 µM [rising, partial curve, poor fit]	68.4
COc1cc2c(cc1OC)C(=O)N(C)CC2	49.9	35.5 µM [rising, partial curve, poor fit]	35.5 µM [rising, partial curve, poor fit]	67.3
N#Cc1cccc(-c2nccc(NCc3cccs3)n2)c1	6.86	0.891 µM [rising, full curve, poor fit]	0.891 µM [rising, full curve, poor fit]	10.9
CC1(C)SC2C(NC(=O)C(C(=O)O)c3ccccc3)C(=O)N2C1C(=O)O (stereo unspecified)	38.5	39.8 µM [rising, single point]	39.8 µM [rising, single point]	63.8
Cn1c(=O)c(CCc2ccccc2)nc2cncnc21	26.1	3.16 µM [rising, partial curve]	0.126 µM [rising, full curve]	36.6
COc1ccccc1N1CCN(CCn2c(=O)[nH]c3c([nH]c4ccccc43)c2=O)CC1	43.4	0.891 µM [rising, full curve]	0.891 µM [rising, full curve]	59.1
COc1ncc2nc(-c3ccc(F)cc3)c(=O)n(CCC#N)c2n1	14.9	1 µM [rising, partial curve]	0.398 µM [rising, partial curve]	17.2
COc1cccc(Nc2ncc3nc(-c4cc(F)cc(F)c4)c(=O)n(C4CC4)c3n2)c1	33.1	0.355 µM [rising, partial curve, poor fit]	0.0355 µM [rising, full curve]	9.77
CC[N+](CC)(CC)CC(=O)Nc1c(C)cccc1C	55	31.6 µM [rising, partial curve, poor fit]	31.6 µM [rising, partial curve, poor fit]	57.6
COCc1nc2c([nH]1)c(=O)n(C)c(=O)n2CC(C)C	70	17.8 µM [rising, partial curve, poor fit]	17.8 µM [rising, partial curve, poor fit]	94.1
O=c1c(-c2cccs2)nc2cncnc2n1-c1ccccc1	32.8	14.1 µM [rising, single point]	11.2 µM [rising, partial curve]	37.9
O=c1c(-c2ccccc2)nc2cnc(N3CCOCC3)nc2n1Cc1ccc(F)cc1	28.3	2.82 µM [rising, full curve, poor fit]	3.98 µM [rising, partial curve]	22.8
Cc1noc(C)c1-c1nccc(N(C)C)n1	50.3	10 µM [rising, partial curve]	8.91 µM [rising, partial curve]	53.8
N#Cc1cccc(-c2cncnc2NCCc2cnc[nH]2)c1	60.3	15.8 µM [rising, partial curve]	12.6 µM [rising, partial curve]	68.1
COc1cccc(-c2cc(NCc3cnc(C)cn3)ncn2)c1	32.3	3.55 µM [rising, partial curve, poor fit]	3.55 µM [rising, partial curve]	34.6
